Source: the RNAGym collection of RNA variant scans (doi:10.7554/elife.90254)
The source gives no read counts; variants with many changes may rest on few reads.

B1: LINE1-mini (parent)
chain: GGCAGAGCUCAACACAGCGUGGCAAAGUGGCUGUGGCUAGACUGCC

Variants of: B1
Assay: self-cleavage, relative activity (ratio to wild type); higher = more cleavage; in vitro, sequencing; the parent is a self-cleaving ribozyme

Row | Variant | self-cleavage
1 | GGCAGAGCUCAACACAGCGACGCAAAGUGGCUGUGGCUAGACUGCU [U20A G21C C46U] | 0.29
2 | UACAGAGCUCAACACAGCGUGGCAAAGUAGCAGUGGCUAGACUGCC [G1U G2A G29A U32A] | 0.55
3 | GGCAGAGCUCAACACAGCUUGGCAAAGUGGCUAUGGCUUGACUGCC [G19U G33A A39U] | 0.06
4 | CGCAGAGCUCAACACAGCGUGGCAAAGUGGAUGUGGCUAGACUGCG [G1C C31A C46G] | 0.03
5 | GUCAGAGCUCAACACAGAGUCGCAAAGUGGUUGUGGCUAGACUGCC [G2U C18A G21C C31U] | 0.02
6 | GGCAGAGCUCAAUACAGCGUGGCAAAAGGGCUGUGGCUAGACUGCC [C13U G27A U28G] | 0.08
7 | GGCAGAGCUAAACACAGCGUGUAAAAGUGGCUGUGGCUAUACUGCC [C10A G22U C23A G40U] | 0.01
8 | GUCAGAGCUCAACACAGCGUGGGAAAGUCGCUGUGGCUAGACUGCC [G2U C23G G29C] | 0.51
9 | CCCAGAGCUCAACACACCGUGGCAAACUGGCUGUGGCUAGACUGCC [G1C G2C G17C G27C] | 0.09
10 | AGCGGCGCUUAACACAGCGUGACAAAGCGGCGGUGGCUAGACUGCC [G1A A4G A6C C10U G22A U28C U32G] | 0.04
11 | GGCAGAGCUUAAGACAGCGUGGCAAAGUGGCUGUGCCUAGCCUGCC [C10U C13G G36C A41C] | 0.01
12 | GGCAGAGCUCAACACAGCGUGGCAAAGUGGCUGUGCAUAGACCGCC [G36C C37A U43C] | 0.02
13 | UGGAGCUCUCAACACAGCGUGGCAAAGUGGCUGUGGCUAGACUGCC [G1U C3G A6C G7U] | 0.06
14 | GGUAGGGCUCAACACAGCGCGGCAAAGUGGCUGUGGGUAGACUGUC [C3U A6G U20C C37G C45U] | 0.03
15 | GGCAGAGCCCAACACAGCGUGUGUAAGUGGCUGUUGCUAGACUGCC [U9C G22U C23G A24U G35U] | 0.01
16 | GGUAGAGCUCAACAAAGCGUGGCAAAGUGGCUGUGGCAGGACUGCC [C3U C15A U38A A39G] | 0.04
17 | GGCAGAGCUCAACACAGCGUGACAAAGUGGCUGUGGCGAGACUGAC [G22A U38G C45A] | 0.02
18 | GGCAAAGCUCAUCACAGCGUGGCAACGUGGCUGUGGCUAGACUGCC [G5A A12U A26C] | 0.17
19 | GGCAGAGCUCAACACAGCGUGGCAAUGUGGCUGUGGAUAGUCUGCC [A26U C37A A41U] | 0.29

Row | Variant | self-cleavage
20 | GGCAGAGCUCAAUACAGCAUGGCAAAGUGGCUGUUGCUAGAUUGCC [C13U G19A G35U C42U] | 0.02
21 | GGCAGAACUCAAUACAGCUUGGCAAACUGGCUGUGCCUAGAGUGCC [G7A C13U G19U G27C G36C C42G] | 0.07
22 | GGCAGAGCUCAACACCACAUGGCAAAGUGGCUGAGGCUCGACUGCA [A16C G17A G19A U34A A39C C46A] | 0.02
23 | GGCAGAGCUCUACACAGCGUGGCAAAGUGGCUUUGGUUAGACUGAC [A11U G33U C37U C45A] | 0.02
24 | GGCAGAGCUCAACACAGCACUGCAAAGUGGCUGUGGCUAGACUGCC [G19A U20C G21U] | 0.98
25 | GGAAAAGCUCAACACAGCAUGGCAAAGUGGGUGUGACUAGACUGCC [C3A G5A G19A C31G G36A] | 0.76
26 | GGCAGAGCUCAACACAGCGCGACAAAGUGGCUGUGGCUAGACCGCC [U20C G22A U43C] | 0.02
27 | GGCAGAGCUCAACACAGCGUGGCAAUGUGGCUGUGGCUUGACAUAC [A26U A39U U43A G44U C45A] | 0.1
28 | GGCACAGCUCAUCACAGCUUGGCAGAGUGGCUGUAGCCAGACUGCC [G5C A12U G19U A25G G35A U38C] | 0.02
29 | GGCAGAGCUCAACACAGCGUGGCAAAGUGUGUGUGGAUAGACUGAC [G30U C31G C37A C45A] | 0.14
30 | GGCAAAGCUUAACACAGAGUGGCAAAGUGGGUGUGGCUAGACUGCC [G5A C10U C18A C31G] | 0.04
31 | GGCAGAGUUCAACACAGCGUGACAAAGUGGCUGUGUCUAGACUGCC [C8U G22A G36U] | 0.34
32 | GGCAGAGCUCAACACCGCGUGGCUUAGUGGCUGUGGCUAGACUGCC [A16C A24U A25U] | 0.07
33 | GGCAGAGCUCAACACAGCCUGGCAAAGUGGUUGUGGUUAGCCUGCA [G19C C31U C37U A41C C46A] | 0.01
34 | GGCACAACUCAACACAGCGUAGCAAAGCUGCUGUCGCUAGACUGCC [G5C G7A G21A U28C G29U G35C] | 0.06
35 | GCCAGAGCUCAACAGUGAGUGGCAAAGUGGCUGUGGCUAGACUGCC [G2C C15G A16U C18A] | 0.03
36 | GGCAGAGCUAAACACAGCGUGGCUAAGUGGCUGUGGCUAAACUGCC [C10A A24U G40A] | 0.05
37 | GGCAGAGCUCAACACUGCGUGGCAAAGUGGCUGUGGAGAGAAUGCC [A16U C37A U38G C42A] | 0
38 | GGCAUAGCUCAACACAGCAUUGCAAAGUGGCUGUGGCUAGACUGCC [G5U G19A G21U] | 0.04

Row | Variant | self-cleavage
39 | GGCAGAGCUCAACACAGCGUGGCAAAUUGGCUAUGGCUAGACAGCC [G27U G33A U43A] | 0.06
40 | GGCACAGCUCAACACAGCGUGGUAAAGUGUUUCUGGCUAAACUGCU [G5C C23U G30U C31U G33C G40A C46U] | 0.01
41 | GGCAUAACUCAACACAGCGGGGCAAAGUGACUGUGGCUAGAUGGCC [G5U G7A U20G G30A C42U U43G] | 0.09
42 | GGCAGAACUCAACACAGCGGGGCAAAGUGGCUGUGGCUAGACUGAC [G7A U20G C45A] | 0.12
43 | GGCAGAGCUCAACACAGCCCGGAAAAGUGGCUGUGGCUAGACUGCC [G19C U20C C23A] | 0.53
44 | GGGAGAGCUCAACACGGCGUGGCAAAGUGGCUGUGGCAAGACUGCC [C3G A16G U38A] | 0.07
45 | GGGAUAGCUCAUCACAGAGUGGUAAAGUGGCUGUGGCUAUACUACC [C3G G5U A12U C18A C23U G40U G44A] | 0.01
46 | GGCAGAGCUAAACACAGUGUGGCAAAGUGGUUGUGGCUAGACUGUC [C10A C18U C31U C45U] | 0.01
47 | GGCAGAGCUCAACACAUCGGGGCAGAGUGGCUGUGGAUAGACUGCC [G17U U20G A25G C37A] | 0.02
48 | GCCAGAGCUCCAUACAGCGUGGCAAAGUGGCUGUGGCUAGCCUGCA [G2C A11C C13U A41C C46A] | 0
49 | GGCAGCGCUCAACAUAGCGUGGCAAAGUGGCUGUUGCUAGACUGCC [A6C C15U G35U] | 0.01
50 | GGCAGAGCUCAGCACAGCGUGGCAAAGUGGCUGUGGCUAUACUACC [A12G G40U G44A] | 0.1
51 | GGCAGAUCUCAACACAGCGUGGCAAAGCUGCUGUGGCUAGACUGCC [G7U U28C G29U] | 0.08
52 | UGCAGAGCUAAACACAGCGGUGCAAAGUGGCUGUGGCUAGACUGCC [G1U C10A U20G G21U] | 0.01
53 | GGCAGAGAUCAACACACCGUGGCAAAGUGGCUGUGGCUAUAAUUCC [C8A G17C G40U C42A G44U] | 0.07
54 | GGCACAGCACAAAACAGCGUGGCAAAGUGGCUGUGGCUUUACUGCC [G5C U9A C13A A39U G40U] | 0.01
55 | GACAGAGCUCAACACAGCGUGGCAAAUUGGAUGUGGCUAGACUGCC [G2A G27U C31A] | 0.19
56 | AGCAAAGCUCAACAAAUCGUGGCAAAGGAGCUGUGGCUAGACUGCC [G1A G5A C15A G17U U28G G29A] | 0.05
